In PMC8888634:
These are yes or no findings as the source states them, for the method shown. In cells and extracts the contact can be indirect. Some results given as binding are weak or reduced against the parent protein; the word gives no strength. For part of these data: Where a sequence is shown, tags or fusion partners need not be part of it. Each block holds one substance with its values, some of them ahead of it.

Amino acid sequences for entries named in this document (tags omitted). A change or cut given only in a name is not applied to a line headed by its entry.
UniProt Q96FW1: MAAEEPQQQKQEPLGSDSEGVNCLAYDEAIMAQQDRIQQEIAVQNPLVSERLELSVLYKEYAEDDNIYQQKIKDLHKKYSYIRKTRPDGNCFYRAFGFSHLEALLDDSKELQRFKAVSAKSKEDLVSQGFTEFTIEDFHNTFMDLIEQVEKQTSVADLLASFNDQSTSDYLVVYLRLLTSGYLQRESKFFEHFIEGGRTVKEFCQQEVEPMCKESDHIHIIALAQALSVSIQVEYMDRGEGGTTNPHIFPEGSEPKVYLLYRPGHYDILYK
UniProt P10275: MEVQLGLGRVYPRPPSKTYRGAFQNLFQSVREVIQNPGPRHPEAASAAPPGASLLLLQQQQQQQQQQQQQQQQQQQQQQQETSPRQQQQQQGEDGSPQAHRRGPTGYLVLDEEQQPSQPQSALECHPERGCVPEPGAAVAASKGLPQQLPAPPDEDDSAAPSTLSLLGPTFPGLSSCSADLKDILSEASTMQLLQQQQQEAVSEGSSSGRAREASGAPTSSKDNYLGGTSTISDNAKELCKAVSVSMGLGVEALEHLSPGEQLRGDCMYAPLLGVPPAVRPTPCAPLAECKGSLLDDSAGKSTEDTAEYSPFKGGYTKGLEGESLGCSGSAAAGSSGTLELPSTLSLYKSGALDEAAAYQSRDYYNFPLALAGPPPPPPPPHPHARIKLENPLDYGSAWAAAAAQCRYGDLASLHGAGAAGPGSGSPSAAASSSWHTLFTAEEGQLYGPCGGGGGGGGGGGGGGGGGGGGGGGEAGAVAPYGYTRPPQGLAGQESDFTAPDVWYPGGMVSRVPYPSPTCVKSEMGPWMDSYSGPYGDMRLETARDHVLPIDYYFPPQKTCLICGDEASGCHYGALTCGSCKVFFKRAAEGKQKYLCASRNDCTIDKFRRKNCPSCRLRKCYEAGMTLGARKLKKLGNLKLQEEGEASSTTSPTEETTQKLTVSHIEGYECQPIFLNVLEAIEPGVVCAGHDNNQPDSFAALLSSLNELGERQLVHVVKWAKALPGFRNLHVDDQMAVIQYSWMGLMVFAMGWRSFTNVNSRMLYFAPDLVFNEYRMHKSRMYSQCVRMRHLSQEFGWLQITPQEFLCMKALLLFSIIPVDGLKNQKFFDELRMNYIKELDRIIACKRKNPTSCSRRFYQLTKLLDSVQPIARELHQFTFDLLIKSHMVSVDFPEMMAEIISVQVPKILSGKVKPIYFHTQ
UniProt P51532: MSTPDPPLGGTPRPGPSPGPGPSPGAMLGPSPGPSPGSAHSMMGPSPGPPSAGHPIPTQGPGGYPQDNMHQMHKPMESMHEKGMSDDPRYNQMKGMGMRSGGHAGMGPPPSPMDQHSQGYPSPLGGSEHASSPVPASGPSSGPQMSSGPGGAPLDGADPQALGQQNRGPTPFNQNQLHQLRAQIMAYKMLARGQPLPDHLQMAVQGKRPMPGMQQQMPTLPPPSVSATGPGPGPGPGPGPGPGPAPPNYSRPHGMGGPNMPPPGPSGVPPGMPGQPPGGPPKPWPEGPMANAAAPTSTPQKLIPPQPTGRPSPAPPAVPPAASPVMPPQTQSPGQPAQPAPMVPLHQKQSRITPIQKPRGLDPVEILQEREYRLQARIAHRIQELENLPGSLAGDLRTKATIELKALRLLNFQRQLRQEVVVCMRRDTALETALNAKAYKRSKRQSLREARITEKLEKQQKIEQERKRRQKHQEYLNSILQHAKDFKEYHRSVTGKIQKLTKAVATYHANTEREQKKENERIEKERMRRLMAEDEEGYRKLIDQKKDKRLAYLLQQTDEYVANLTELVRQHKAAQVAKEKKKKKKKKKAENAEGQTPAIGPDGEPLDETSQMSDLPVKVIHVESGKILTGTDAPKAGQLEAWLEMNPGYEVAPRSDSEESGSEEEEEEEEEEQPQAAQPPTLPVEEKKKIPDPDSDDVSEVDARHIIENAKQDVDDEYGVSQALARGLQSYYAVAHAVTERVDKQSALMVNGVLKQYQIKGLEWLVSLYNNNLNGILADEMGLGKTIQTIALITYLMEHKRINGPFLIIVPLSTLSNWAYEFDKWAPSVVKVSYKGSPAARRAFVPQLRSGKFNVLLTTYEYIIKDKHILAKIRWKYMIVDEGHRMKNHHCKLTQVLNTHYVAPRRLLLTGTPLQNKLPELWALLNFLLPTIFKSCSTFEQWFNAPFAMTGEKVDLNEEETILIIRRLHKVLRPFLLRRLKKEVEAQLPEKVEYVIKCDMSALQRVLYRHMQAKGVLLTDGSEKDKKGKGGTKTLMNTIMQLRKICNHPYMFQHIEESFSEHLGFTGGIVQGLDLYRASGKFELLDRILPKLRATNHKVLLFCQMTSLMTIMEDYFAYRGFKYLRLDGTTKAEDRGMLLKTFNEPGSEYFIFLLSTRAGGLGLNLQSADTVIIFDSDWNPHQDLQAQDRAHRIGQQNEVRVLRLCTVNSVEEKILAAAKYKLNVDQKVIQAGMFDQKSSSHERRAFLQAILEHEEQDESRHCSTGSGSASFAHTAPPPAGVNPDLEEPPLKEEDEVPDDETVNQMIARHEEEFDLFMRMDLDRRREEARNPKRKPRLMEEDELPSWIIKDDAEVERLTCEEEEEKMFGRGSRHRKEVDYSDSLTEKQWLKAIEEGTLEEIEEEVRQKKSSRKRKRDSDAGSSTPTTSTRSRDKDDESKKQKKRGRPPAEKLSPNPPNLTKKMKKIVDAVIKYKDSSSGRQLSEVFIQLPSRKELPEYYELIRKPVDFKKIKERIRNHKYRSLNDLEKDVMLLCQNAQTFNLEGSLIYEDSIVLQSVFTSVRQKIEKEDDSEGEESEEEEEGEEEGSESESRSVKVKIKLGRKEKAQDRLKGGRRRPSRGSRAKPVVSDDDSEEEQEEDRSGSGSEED

Key:
[1] = biological target: T1, OTUD6A, endogenous in prostate cancer cells (human (endogenous in VCaP)) (UniProt Q7L8S5); assay: co-IP; endogenous proteins, VCaP cells; anti-OTUD6A or anti-Brg1, anti-AR antibodies, IgG as negative control; lysis in EBC buffer (50 mM Tris pH 8.0, 120 mM NaCl, 0.5% NP-40), overnight at 4 °C, washes with NETN buffer; immunoblot
T1 sequence: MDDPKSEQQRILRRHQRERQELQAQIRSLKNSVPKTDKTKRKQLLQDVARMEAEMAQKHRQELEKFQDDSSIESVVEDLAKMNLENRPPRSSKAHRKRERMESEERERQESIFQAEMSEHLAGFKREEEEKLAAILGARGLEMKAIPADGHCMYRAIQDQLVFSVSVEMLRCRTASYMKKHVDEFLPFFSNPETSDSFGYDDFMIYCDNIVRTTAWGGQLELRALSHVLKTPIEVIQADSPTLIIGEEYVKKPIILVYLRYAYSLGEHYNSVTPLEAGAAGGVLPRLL

[2] = biological target: T1, OTUD6A, endogenous in prostate cancer cells (human (endogenous in VCaP)); assay: co-IP; IP-IB analysis in other prostate cancer cell lines, including PC-3, LNCaP and C4-2 (Supplementary Fig. 4d, e)
[3] = biological target: T2, OTUD6A-C-terminus, as used in the GST pull-down (human) (UniProt Q7L8S5); assay: pull-down; in vitro GST pull-down with OTUD6A-N-terminus, -C-terminus and -full length; immunoblot
T2 sequence: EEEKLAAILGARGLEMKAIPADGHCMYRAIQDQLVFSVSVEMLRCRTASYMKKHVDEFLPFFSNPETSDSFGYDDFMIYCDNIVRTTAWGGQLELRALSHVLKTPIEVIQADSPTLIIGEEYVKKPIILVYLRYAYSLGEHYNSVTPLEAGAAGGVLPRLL

[4] = biological target: T3, OTUD6A-N-terminus, as used in the GST pull-down (human) (UniProt Q7L8S5); assay: as above
T3 sequence: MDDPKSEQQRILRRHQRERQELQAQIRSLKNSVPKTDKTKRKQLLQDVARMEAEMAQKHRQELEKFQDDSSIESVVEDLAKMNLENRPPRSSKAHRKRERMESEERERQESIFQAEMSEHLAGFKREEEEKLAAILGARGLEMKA

[5] = biological target: T4, OTUD6A N-terminus, as used in the co-IP assay (Supplementary Fig. 4f) (human) (UniProt Q7L8S5); assay: co-IP; co-IP of the N-terminus and C-terminus of OTUD6A with Brg1 and AR (Supplementary Fig. 4f); cells and tags not shown
T4 sequence: T3 sequence

[6] = biological target: Flag-OTUB1, expressed in 293T cells (UniProt Q96FW1); assay: co-IP; 293T cells transfected with HA-tagged Brg1 or AR (whole or fragments) and Flag-tagged OTU family members; IB of WCLs and IPs; lysis in EBC buffer, washes with NETN buffer
[7] = biological target: T5, Flag-OTUD6A (pcDNA3.1-Flag-OTUD6A), expressed in 293T cells (human) (UniProt Q7L8S5); assay: as above
T5 sequence: T1 sequence

Substance: AR, as used in the GST pull-down (from UniProt P10275 1-920) (receptor)
binding [3]: no binding
binding [4]: binds

Substance: Brg1, as used in the GST pull-down (from UniProt P51532 1-1647)
binding [3]: no binding
binding [4]: binds

Substance: Brg1, the ATPase subunit of the SWI/SNF chromatin remodeling complex, endogenous in prostate cancer cells (from UniProt P51532 1-1647)
binding [1]: binds
binding [2]: binds

Substance: HA-Brg1 (pCMV5-HA-Brg1), expressed in 293T cells (from UniProt P51532 1-1647)
binding [5]: binds
binding [7]: binds

Results, then the substance that gave them:

binding [1]: binds
binding [2]: binds
Substance: AR (androgen receptor), endogenous in prostate cancer cells (from UniProt P10275 1-920)

binding [5]: binds
binding [6]: binds
binding [7]: binds
Substance: HA-AR (pcDNA3.1-HA-AR), expressed in 293T cells (from UniProt P10275 1-920) (receptor)

binding [7]: binds
Substance: HA-tagged C-terminal domain of Brg1 (amino acids 1301-1647), expressed in 293T cells (from UniProt P51532 1301-1647) (domain or fragment)

binding [7]: binds
Substance: HA-tagged LBD (ligand-binding domain) of AR (amino acids 670-920), expressed in 293T cells (from UniProt P10275 670-920) (domain or fragment)
